The campaign covered roughly 350,000 compounds. About 9,900 (2.8%) were called active. Inconclusive results, whose numbers are uncertain, are shown with a selection of clear calls. The call rests on the fitted dose curve; in most records, active means well fitted activation curve with a large enough effect; inconclusive means small, poorly fitted or top-dose-only effect; inactive means no such curve, though single readings can be large or run the other way. Potencies of inconclusive entries are left out as doubtful fits.
experiment: A quantitative high throughput screen for small molecules that induce DNA re-replication in MCF 10a normal breast cells.; further: nearly all actives have a fitted effect of over 50% in size; on activity, positive = re-replication: % of control where 0% means no effect; settings: MCF 10A DNA re-replication, Hoechst nuclear intensity, 48 h; activity, positive = re-replication: at 46.1 µM (top of the series)
Potency means the concentration at half of the fitted maximal effect; tags describe the fitted curve by direction and shape.

Structure (SMILES) | Potency | activity, positive = re-replication
CC(C)NC(=O)CN1C(=O)c2cccc3cccc1c23 | inactive | –
COC(=O)c1ccc(COc2ccc(C)cc2[N+](=O)[O-])o1 | active: 1.84 µM | –
CCOC(=O)c1[nH]c(C(=O)O)c(CCN(CC)CC)c1C | inactive | –
CC1(C)Cc2c(sc3c2c(=N)n(Cc2ccco2)c(=O)n3Cc2ccc(Cl)cc2)CO1 | inconclusive [activator, partial curve, poor fit] | –
CN(C)S(=O)(=O)c1cc(NC(=O)COC(=O)/C=C/c2ccco2)ccc1Cl | inconclusive [activator, single point] | –
CN(C)c1nc(OCCNC(=O)COc2ccccc2Cl)nc(N(C)C)n1 | inconclusive [activator, partial curve, poor fit] | –
Cc1ccc(C(=O)c2cnc3cc4c(cc3c2S(=O)(=O)c2ccccc2)OCCO4)cc1 | inconclusive [activator, single point] | –
COc1ccc(OC)c(C2CC(c3c(-c4ccccc4)c4cc(Cl)ccc4[nH]c3=O)=NN2S(C)(=O)=O)c1 (stereo unspecified) | active: 7.31 µM | –
C/C(=N\NC(=O)c1nnn(-c2nonc2N)c1CN(C)c1ccccc1)c1cccnc1 | inactive | –
COc1cc(OC)c(C(=O)OC(C)C(=O)Nc2cc(C(F)(F)F)ccc2Cl)cc1OC (stereo unspecified) | inconclusive [activator, partial curve, poor fit] | –
COc1cc2nc(C3CCC3)nc(N3CCN(c4ccccn4)CC3)c2cc1OC | inconclusive [activator, single point] | –
COc1ccc(S(=O)(=O)N2CCOC23CCN(S(=O)(=O)c2ccc(F)cc2)CC3)cc1 | inconclusive [activator, partial curve, poor fit] | –
Cc1ccccc1NC(=O)CCCN1C(=O)C2CC=CCC2C1=O (stereo unspecified) | inactive | –
COc1ccc(Nc2cccccc2=O)cc1 | – | inactive: -183% [at 0.0737 µM]
Cc1ccn2c(C(=O)N/N=C\c3cccs3)c(C)nc2c1 | inactive | –
O=C(Nc1ccc(S(=O)(=O)Nc2ncccn2)cc1)c1ccc2ncsc2c1 | inactive | –
O=C(NCc1cccs1)c1nc2c(nnn2Cc2ccc(F)cc2)c(=O)[nH]1 | inactive | –
O=C1CCCc2c1[nH]c1ccc(Cl)cc21 | inactive | –
CCOCC(=O)Nc1cc(S(=O)(=O)N2CCOCC2)ccc1N1CCCCC1 | inconclusive [activator, partial curve, poor fit] | –
CCOc1ccc(N2C(=O)Nc3ccc(Br)cc3C2(O)C(=O)NC(C)C)cc1 (stereo unspecified) | inactive | –
O=C1C2C3C=CC(CC3)C2C(=O)N1/N=C/c1ccc(O)c(O)c1 (stereo unspecified) | inconclusive [activator, partial curve] | –

Source: PubChem BioAssay AID624296 (National Center for Advancing Translational Sciences (NCATS), 2012)
